Laboratory results published in paper PMC4336329 (PLoS ONE, 2015).
The whole screen tested about 310,000 compounds, of which about 2,200 (0.71%) showed an effect of 50% or more. Effects have a minus sign here. The list shows a part of the results.

Molecular target: human ether-à-go-go-related gene (hERG) potassium channel (human, UniProt Q12809)
Assay: primary screen, population patch clamp on CHO cells stably expressing hERG

Sequence of human ether-à-go-go-related gene (hERG) potassium channel (Q12809 whole entry, looked up): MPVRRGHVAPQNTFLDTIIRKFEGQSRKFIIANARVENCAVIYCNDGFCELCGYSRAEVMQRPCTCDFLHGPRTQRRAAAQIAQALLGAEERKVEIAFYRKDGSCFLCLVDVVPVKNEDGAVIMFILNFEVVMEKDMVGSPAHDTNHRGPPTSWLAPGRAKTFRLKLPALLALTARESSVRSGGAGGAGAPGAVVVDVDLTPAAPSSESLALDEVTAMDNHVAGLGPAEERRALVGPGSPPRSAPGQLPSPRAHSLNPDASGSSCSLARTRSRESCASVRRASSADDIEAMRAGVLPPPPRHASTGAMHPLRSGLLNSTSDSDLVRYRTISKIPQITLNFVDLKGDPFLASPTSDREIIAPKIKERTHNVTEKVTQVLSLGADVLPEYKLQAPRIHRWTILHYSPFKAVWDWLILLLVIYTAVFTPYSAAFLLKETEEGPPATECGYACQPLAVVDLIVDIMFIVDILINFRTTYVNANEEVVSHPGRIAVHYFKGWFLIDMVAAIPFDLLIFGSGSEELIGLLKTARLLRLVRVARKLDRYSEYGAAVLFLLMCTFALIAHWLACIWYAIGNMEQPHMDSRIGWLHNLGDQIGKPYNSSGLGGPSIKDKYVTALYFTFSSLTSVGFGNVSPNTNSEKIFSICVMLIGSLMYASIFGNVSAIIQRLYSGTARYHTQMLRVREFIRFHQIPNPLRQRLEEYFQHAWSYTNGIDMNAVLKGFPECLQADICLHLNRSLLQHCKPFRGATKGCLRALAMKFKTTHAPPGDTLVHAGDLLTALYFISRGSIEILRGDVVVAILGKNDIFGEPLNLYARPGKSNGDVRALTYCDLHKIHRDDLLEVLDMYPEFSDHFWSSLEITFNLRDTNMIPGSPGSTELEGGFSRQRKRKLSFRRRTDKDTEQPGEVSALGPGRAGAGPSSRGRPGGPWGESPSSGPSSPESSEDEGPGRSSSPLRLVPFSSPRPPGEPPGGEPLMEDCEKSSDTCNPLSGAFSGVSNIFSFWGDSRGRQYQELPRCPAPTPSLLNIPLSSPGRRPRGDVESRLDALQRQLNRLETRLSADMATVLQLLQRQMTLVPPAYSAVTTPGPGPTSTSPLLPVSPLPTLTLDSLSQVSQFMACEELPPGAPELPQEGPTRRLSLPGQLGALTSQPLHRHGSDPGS

Compound	hERG current change (%, negative = inhibition) at 1uM [%]
CSc1ccccc1C(=O)Nc1ccc2c(c1)OCCO2	7.17
CN(CCOc1cccc(C(F)(F)F)c1)Cc1ccccc1.O=C(O)C(=O)O	14.8
COc1cccc(NC(=O)NCc2c(-c3ccccc3)noc2C)c1	-1.96
O=C(CN1CCN(C/C=C/c2ccccc2)CC1)Nc1ccccc1C(=O)NC1CC1	-88.8
O=C(Nc1nccs1)c1cccc(N2C(=O)C3C4C=CC(C4)C3C2=O)c1 (stereo not drawn)	-13.2
COc1ccc(CCNC(=O)C2CCC(=O)N(CCc3ccc(OC)cc3)C2)cc1 (stereo not drawn)	33.9
COc1cc(C2NC(=O)NC(c3ccccc3)=C2C(C)=O)cc([N+](=O)[O-])c1O (stereo not drawn)	10.5
O=C(O)c1ccc2c(=O)n3c(nc2c1)/C(=C/c1ccc(Cl)c([N+](=O)[O-])c1)CC3	14.2
COc1cc(CC(=O)Nc2ncc(C)s2)cc(OC)c1OC	16.8
CCOC(=O)c1cc2c(ccn2C)n1CC(=O)N1CCN(c2ccccc2)CC1	1.85
CC(C)CN(CC(C)C)C(=O)COc1ccccc1C(N)=O	9.29
COc1ccc(CNS(=O)(=O)NCc2ccccc2F)cc1	13.8
Cc1c(Br)c([N+](=O)[O-])nn1C(C)C(=O)NCC1CCCO1 (stereo not drawn)	-9.96
COc1ccc(OC)c(C2NC(=O)NC(C)=C2C(=O)Nc2ccc(C)cc2)c1 (stereo not drawn)	-5.03
CCOc1ccc(C(CCc2ccccc2)NC(=O)c2ccccc2)cc1OCC (stereo not drawn)	2.85
CCCOC(=O)CN1C(=O)c2ccccc2C1=O	8.69
O=[N+]([O-])c1cc(C(F)(F)F)ccc1NC1CCN(Cc2ccccc2)C1 (stereo not drawn)	-1.39
O=C(NNC(=O)C1CCCN(S(=O)(=O)c2cccc(F)c2)C1)C1CC1 (stereo not drawn)	39.6
C=CCSc1ncccc1C(=O)NCCc1ccc(Cl)cc1	14.5
COc1ccc(N2C(=O)/C(=C/c3ccco3)C(=O)NC2=S)cc1	6.72
C=CCC(Nc1ccccc1)c1ccc(OC)c(OC)c1 (stereo not drawn)	9.7
COc1cc(/C=N/n2c(C)nc3ccccc3c2=O)cc(OC)c1O	14

Compound	hERG current change (%, negative = inhibition) at 1uM [%]
NNC(=O)CNC(c1ccccc1)c1cc(Cl)ccc1NC(=O)c1ccccc1 (stereo not drawn)	16.8
COc1cc2sc(C)nc2cc1C	18.5
CC1CCCC(NC(=O)COC(=O)[C@@H]2CC(O)CN2S(=O)(=O)c2ccc3c(c2)OCCO3)C1C (stereo partly drawn)	7.99
O=S(=O)(c1ccc(NCc2ccccc2)cc1)N1CCOCC1	20.8
CC(C)CC(=O)Nc1c(C(=O)N2CCN(Cc3ccccc3)CC2)oc2ccccc12	7.06
Cc1cc(C)c(C#N)c(SCCN2CCCCC2)n1	6.95
COc1cccc(N2C(=NC(=O)CCC3CCCC3)SC3CS(=O)(=O)CC32)c1 (stereo not drawn)	8.16
COc1ccc(S(=O)(=O)N2CCOCC2)cc1NC(=O)CSc1ncnc2ccccc12	15.7
O=C(CNS(=O)(=O)c1ccc(Br)s1)NCCc1ccc(Cl)cc1	16.1
O=C1/C(=C/c2cccc3ccccc23)CCCc2ccccc21	17.6
CN(C)C(=O)CSc1nc(-c2cccs2)c(-c2cccs2)[nH]1	9.02
CCC(C)N(C(=O)c1csnn1)C(C(=O)NC1CCCC1)c1ccccc1F (stereo not drawn)	2.84
COc1ccc(S(=O)(=O)N2CCCCC2)cc1NC(=O)C1CC(=O)N(Cc2ccccc2)C1 (stereo not drawn)	5.03
CCN1CCCC1Cn1cnc2c([nH]c3ccc(Cl)cc32)c1=O (stereo not drawn)	-69.4
CCS(=O)(=O)N1CCN(S(=O)(=O)c2ccc(S(=O)(=O)NC3CC3)cc2)CC1	10.9
O=C(COC(=O)c1ccc2ncsc2c1)NCc1ccc(F)cc1	4.82
CN1C(C(=O)NCc2cccc(Br)c2)CC2Cn3c(nc4ccccc43)C21 (stereo not drawn)	-25.7
CC(C)C(NC(=O)c1ccco1)C(=O)OCC(=O)Nc1ccc(C(N)=O)cc1 (stereo not drawn)	12.9
C=CCn1c(SCCOc2ccccc2)nnc1C(C)NC(=O)c1ccccc1 (stereo not drawn)	12.9
Cc1ccc(S(=O)(=O)N2CCC(=O)N(CCOC(=O)Nc3ccc(C)c(C)c3)CC2)cc1	-7.3
COc1ccc(C(C)C)cc1S(=O)(=O)NCCCn1ccnc1	11.2
Cc1ccccc1NS(=O)(=O)c1ccc2oc(=O)ccc2c1	15.4

Compound	hERG current change (%, negative = inhibition) at 1uM [%]
O=C(COc1ccc2c3c(c(=O)oc2c1)CCC3)N[C@@H](CSCc1ccccc1)C(=O)O	8.31
CCOC(=O)c1ccc(NC(=O)COc2coc(CN3CCc4ccccc43)cc2=O)cc1	8.2
CC(=O)Nc1ccc(S(=O)(=O)NC2=NCN(c3ccc([N+](=O)[O-])cc3)CN2)cc1	17.9
COc1ccc(C(=O)Nn2c(C)nc3ccccc3c2=O)c(OC)c1	8.7
COc1cc(C(=O)Nc2cccc(-n3cnnn3)c2)cc(Cl)c1OC	3.78
[O-][n+]1c2c(nc3c1-c1ccccc1C3O)CCCC2 (stereo not drawn)	11.4
CCc1ccc(/C(C)=N\Nc2ccc([N+](=O)[O-])cc2)cc1	6.85
COCCOCCn1cnc2ccccc21	17.7
Nn1c(COc2ccc(Cl)cc2)nc2ccccc2c1=O	1.71
COc1ccc(/C=C2/C(=N)N3N=C(CC(=O)N4CCCC4)SC3=NC2=O)cc1OC	9.9
CC(=O)Oc1ccc(C(=O)Nc2cccc(-c3nnc(-c4ccco4)o3)c2)cc1	4.65
O=c1c2ccccc2nc2ccc(NCc3cccs3)nn12	9.37
CCS(=O)(=O)c1ncc(Cl)c(C(=O)Nc2ccccc2OC)n1	17.5
COc1cccc(-c2csc(N3CCN(C(=O)C4CCCCC4)CC3)n2)c1	2.38
O=C1C(Cl)=C(N2CCCCCC2)C(=O)N1c1ccc(Br)cc1	12.4
Cc1cc(C(=O)O)ccc1-n1c(C)cc(/C=C(/C#N)C(=O)Nc2ccccc2)c1C	14.8
COc1ccc(C2C(C(C)=O)=C(O)C(=O)N2c2ccc(Br)cn2)cc1 (stereo not drawn)	6.15
COC(=O)c1cc(N=Nc2c(C)[nH]c3ccccc23)cc(C(=O)OC)c1	16.8
CCCCNC(=O)/C(=C/c1ccco1)NC(=O)c1ccco1	14.2
CCOc1ccc(-n2c(C)c(C(=O)OC)c3cc(O)ccc32)cc1	12.2
CSc1ccccc1NC(=O)COC(=O)Cn1cc(C(F)(F)F)ccc1=O	7.91
O=C(/C=C/c1ccco1)N(Cc1cccc(Br)c1)C1CCS(=O)(=O)C1 (stereo not drawn)	-8.58

Compound	hERG current change (%, negative = inhibition) at 1uM [%]
CN(C)S(=O)(=O)c1cccc(NC(=S)N(CCC#N)Cc2cccnc2)c1	5.18
Cc1ccc(-c2nc3ccccc3o2)cc1NC(=S)NC(=O)c1cc2ccccc2o1	9.01
O=C1c2ccccc2C(=O)C1c1nccc2ccccc12	18.1
CCOc1ccc(S(=O)(=O)N2CCCC(C(=O)NCc3ccco3)C2)cc1 (stereo not drawn)	5.92
COc1ccc(/C(O)=C2/C(=O)C(=O)N(CCCN3CCOCC3)C2c2ccc(N(C)C)cc2)cc1 (stereo not drawn)	9.36
COc1nc(C)nc(NC(=O)NS(=O)(=O)c2ccccc2Cl)n1	12.3
CCOc1ccccc1CN1CCNC(=O)C1CC(=O)NCc1cc(C)n(C)n1 (stereo not drawn)	15
CCCCNC(=O)CCC(=O)Nc1ccc2nc(N3CCOCC3)cc(C)c2c1	-0.214
CCOC(=O)c1c(SCC(=O)Nc2nc(C)cs2)nc(=O)[nH]c1C	13.4
CN1C(C(=O)NCc2ccccc2)CC2Cn3c(nc4ccccc43)C21 (stereo not drawn)	6.79
O=C(NS(=O)(=O)Nc1ccc(Cl)cc1)c1c[nH]c2ccccc12	11.9
C=CCc1c(C)nc(SC)nc1Nc1ccc(C)cc1	7.54
CCOC(=O)c1nn(-c2cccc(OC)c2)c2nc(Nc3ccccc3)cc(=O)n12	3.3
CC(c1ccccc1)N1C(=O)c2cccnc2C1=O (stereo not drawn)	9.62
COCC(=O)Nc1nnc(-c2ccc(C(C)(C)C)cc2)s1	5.84
CCCCN1CC(O)=C(c2nc(-c3ccc(Br)cc3)cs2)C1=N	10.6
Cc1cccc(C(=O)NC(C(=O)Nc2nc(-c3ccccn3)cs2)C(C)C)c1 (stereo not drawn)	11.7
COc1ccc(CC(=O)N2CCCc3ccccc32)cc1OC	11.5
CC(C)[C@H](N)C(=O)N1CCC(C(=O)N[C@@H](Cc2ccccc2)C(=O)NCc2ccc(F)cc2)CC1	19.5
CCCCn1nnnc1NCc1cc(Cl)c(OC)c(OC)c1	-3.6
CC(=O)N1CCC(N(CCN2CCOCC2)C(=S)Nc2ccccc2C)CC1	16.2
